From PubChem BioAssay AID624296 (National Center for Advancing Translational Sciences (NCATS), 2012)
In all, about 350,000 compounds went through this assay and about 9,900 (2.8%) were called active. This list was built around the results that the source calls inconclusive (neither active nor inactive); the mix of calls is not that of the screen. Calls come from the whole dose curve; as a rule, active = well fitted activation curve with a large enough effect; inconclusive = small, poorly fitted or top-dose-only effect; inactive = no such curve, though single readings can be large or run the other way. Potencies of inconclusive entries are left out as doubtful fits.

assay: A quantitative high throughput screen for small molecules that induce DNA re-replication in MCF 10a normal breast cells.; note: nearly all actives have a fitted effect of over 50% in size; settings: MCF 10A DNA re-replication, Hoechst nuclear intensity, 48 h; series mostly up to 46.1 µM
Potency is the fitted concentration of half-maximal effect; tags give direction and shape of the fitted curve.

Structure (SMILES) | Potency
Cc1ccc(C(=O)NNC(=O)c2ccncc2)cc1S(=O)(=O)N1CCOCC1 | inactive
Cc1csc(NC(=O)c2sccc2C)n1 | inactive
Cc1c(Br)cc(C(=O)N2CCCCCC2)c(C)c1C | inconclusive [activator, full curve, poor fit]
CC(C)(CNC(=O)c1ccc(S(=O)(=O)Nc2cccc(C(F)(F)F)c2)cc1)N1CCOCC1 | inconclusive [activator, partial curve, poor fit]
COc1cc(C(=O)NC2CCCc3ccccc32)ccc1OCC(=O)Nc1ccc(F)cc1 (stereo not drawn) | inconclusive [activator, partial curve, poor fit]
CC(=O)N1CCOc2ccc(S(=O)(=O)N3CCC(C(=O)NCc4ccccc4)CC3)cc21 | inconclusive [activator, partial curve, poor fit]
COc1ccc(-c2cc3onc(-c4c(Cl)cccc4Cl)c3c(=O)n2C)cc1 | inconclusive [activator, single point]
CCCOc1cc(N)ccc1C(=O)OCCN(CC)CC | inactive
COc1ccc(CN2CCC(CO)(Cc3cccc(C(F)(F)F)c3)CC2)cc1Cn1cccn1 | inconclusive [activator, single point]
COc1ccc(/C=N/N=C2/NC(=O)C(CC(=O)O)S2)cc1OCc1ccccc1Cl (stereo not drawn) | inconclusive [activator, partial curve, poor fit]
CCN(c1ccccc1)S(=O)(=O)c1ccc(OC)c(NC(=O)CNCC(C)O)c1 (stereo not drawn) | inconclusive [activator, single point]
Cc1ccc(CNc2cnn(C34CC5CC(CC(C5)C3)C4)c(=O)c2Cl)cc1 | inconclusive [activator, partial curve, poor fit]
O=C(Cc1ccccc1Cl)Nc1cc(S(=O)(=O)N2CCOCC2)ccc1N1CCOCC1 | inactive
CN(C)c1ccc(C(=O)c2ccc(N(C)C)c3ccccc23)cc1 | active: 0.206 µM
CN1CCN(NC(=O)CN2C(=O)/C(=C/c3c(Cl)cccc3Cl)SC2=S)CC1 | inconclusive [activator, partial curve, poor fit]
O=C(NC1CC1)C1=C[C@H](c2csc3ccccc23)C[C@H](OCCCCO)O1 | inconclusive [activator, partial curve, poor fit]
CCOc1ccc(-c2nnc(NC(=O)CCCOc3cccc(C)c3)o2)cc1 | inconclusive [activator, single point]
COc1ccc(/C=C2/CCCC(C(=O)C(F)(F)F)=C2O)cc1OC | inconclusive [activator, single point]
CCn1cc(C(=O)NC(=S)Nc2ccccc2Br)cn1 | inactive
CCN(C(=O)c1cc2c(=O)n3cccc(C)c3nc2n1CCCOC)C1CCCCC1 | active: 18.4 µM
O=C(CCS(=O)(=O)c1ccc(Cl)cc1)Nc1nnc(-c2ccco2)o1 | inconclusive [activator, single point]
N#C/C(=C/c1ccc(-c2ccc(S(N)(=O)=O)cc2)o1)c1nc2ccccc2s1 | active: 3.66 µM

Structure (SMILES) | Potency
CC(C)N(C(=O)[C@H]1CC(CC(=O)NCCCn2ccnc2)C(=O)N2CCc3c([nH]c4ccccc34)[C@]12C)C(C)C (stereo partly drawn) | inconclusive [activator, full curve, poor fit]
Cc1c(C(=O)NC(=S)N(Cc2ccccc2)c2ccccn2)cccc1[N+](=O)[O-] | inactive
CN(C(=O)c1cccnc1)c1nc(-c2ccccc2)cs1 | inactive
COc1ccc(-c2cc(C(F)(F)F)nc(SCCC(=O)NCc3ccccc3)n2)cc1 | inconclusive [activator, single point]
CCN(CC)C1Oc2cc3c(cc2C(c2cc(OC)c(O)c(OC)c2)C1C)OCO3 (stereo not drawn) | inconclusive [activator, single point]
COc1ccc([C@H]2CC(=O)C=C(c3cccc(OC)c3OC)C2)cc1OC | inactive
Cc1[nH]nc(C(F)(F)F)c1N=NN1CCOCC1 | active: 3.66 µM
Cc1cc(C)cc(N(C(=O)c2snc(C(N)=O)c2N)C(C(=O)NCC2CCCO2)c2ccc(C)o2)c1 (stereo not drawn) | inconclusive [activator, partial curve, poor fit]
O=[N+]([O-])c1nn(-c2ccccc2)n(O)c1=NCc1ccc2c(c1)OCO2 | inactive
Cn1ccc(C(=O)Nc2sc3c(c2C(N)=O)CCCCC3)n1 | inconclusive [activator, partial curve, poor fit]
N#CCCN/N=C(/Cc1nc2ccccc2[nH]1)c1cccc(Cl)c1 | inconclusive [activator, partial curve, poor fit]
COc1ccc(Cc2nc3ccc(C(=O)N(C)C(C)c4ccon4)cc3o2)cc1 (stereo not drawn) | inactive
N#Cc1c(-c2ccco2)c2c([nH]c1=S)CCCC2 | inactive
S=C(NCc1ccccc1)Nc1cccc2ccccc12 | inconclusive [activator, single point]
Cc1ccc(-c2cc(C(=O)NCc3ccco3)c3ccccc3n2)o1 | inactive
Cn1cccc1Cc1nnc(SCC(=O)N2CCCCCC2)n1-c1ccc(F)cc1 | inconclusive [activator, partial curve]
CC(C)CCNC(=O)c1onc(CSc2ccccn2)c1C(=O)NCCC(C)C | inconclusive [activator, single point]
C=CCN1C(=O)S/C(=C/c2ccc(Sc3nc4ccccc4[nH]3)o2)C1=O | inconclusive [activator, partial curve]
Cc1nnsc1C(=O)NC1CCCc2c1cnn2-c1ccccc1F (stereo not drawn) | inconclusive [activator, partial curve, poor fit]
Cc1cc(NC(=O)CO/N=C/c2ccc3c(c2)OCO3)ccc1Br | inconclusive [activator, single point]
COc1ccc(OC)c(NC(=O)Nc2ccc(O)c3ccccc23)c1 | inconclusive [activator, partial curve, poor fit]
